This note sets out measurements from paper PMC12136788.

T1: UNK ZnF1-3 (human, UniProt Q9C0B0 31-174)
T1 sequence: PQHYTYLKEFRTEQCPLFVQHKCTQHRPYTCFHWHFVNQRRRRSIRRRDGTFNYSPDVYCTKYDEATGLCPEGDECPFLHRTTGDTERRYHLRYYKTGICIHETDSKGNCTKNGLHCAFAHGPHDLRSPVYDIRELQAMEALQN

B1: chr12:16048344:16048345:+_ENSG00000023734_ENST00000419869|hu_hu|hu_hu_hu_mus_True|58_78 (ssRNA)
RNA: GGGAGUUCUACAGUCCGACGAUCAGAUCGUCCAUAAGUAAUAACCAAAAUCUCUCCCUCAGGAAUAUACUCCAUGCUACUAACAGACAUAUUAAAAUUCAGAGAUUUCACUUCUGUCAUUGUGGCAUGAUCCCAGAGCCGAACCAACAGAGGAUUGAGCAUCA
B2: chr5:174939138:174939139:+_ENSG00000164466_ENST00000321442|hu_mus|FALSE|FALSE (ssRNA)
RNA: GGGAGUUCUACAGUCCGACGAUCACCAACCUUCAGCUCCCUUUGUCUCAUCAGUGGGAUGUUAAUGCAGUUAGCAGCAGCUACAGCAGCGAAGGGAACAAAACGUCCUAUCAGUGGGGAGACACGCUUGGUUAAGGCAUUGAGCAACAGAGGAUUGAGCAUCA
B3: chr1:204375296:204375297:-_ENSG00000158615_ENST00000367188|hu_hu|FALSE|FALSE (ssRNA)
RNA: GGGAGUUCUACAGUCCGACGAUCGCCAACUCAACAUUGCUUGAGAACAUUAAGUCCUUUGAAGCAUGUUCCCUGGAGUCUAUUAAACAUUCUUUCUCUGUGUUCAAAUGUCAAGCAAUAUCCAAUAGCAUCUUCUGUUUCUUGCAACAGAGGAUUGAGCAUCA
B4: chrX:153994619:153994620:+_ENSG00000130826_ENST00000369550|hu_hu|motif|central (ssRNA)
RNA: GGGAGUUCUACAGUCCGACGAUCCCCCACAUACUCUUUGCCUGCACUCUGUUGUGACUUCACCAAGCGAGUGGCUCGUUCGGUGCACACGAUUAAACAACCAGUCACCUUGGGAUCCAGCGUACCACUGUGCCCUGUCUUCUCCAACAGAGGAUUGAGCAUCA
B5: chr7:7679991:7679992:-_ENSG00000106399_ENST00000396682|hu_hu|hu_hu_hu_mus_False|8_18 (ssRNA)
RNA: GGGAGUUCUACAGUCCGACGAUCUGGGAUGAAUCUUUUCCAGCUUCCCCACGAAGCACACGGGCCGGUCGAUAUACUGUGGUAACAUGCUGGCGUUGACGCGCGCUUUGGGGAGCUCCAUCAUGUCCACCAUGAUUCUGCCGCCAACAGAGGAUUGAGCAUCA
B6: chr14:45599971:45599972:-_ENSG00000100442_ENST00000396062|hu_hu|motif|central (ssRNA)
RNA: GGGAGUUCUACAGUCCGACGAUCAUAGGCUGUAACCAAGUGGUCCUUGUUAGCUGUCUUGGCCACAUUUUUAAUGUUUCCGGAUAAUUUAUGUUCUGCAAGAAACGAAUCUGAACCGUGUUCCUGCAGAAACUUGAUAAUGUCCAACAGAGGAUUGAGCAUCA
B7: chr9:127920631:127920632:-_ENSG00000119414_ENST00000456642|hu_mus|FALSE|FALSE (ssRNA)
RNA: GGGAGUUCUACAGUCCGACGAUCAAUACGGUCAGGCCACUUAGCCUUUAGUGCAAGAAGAUAAGUGAAGGUCUCCAAACUAUAGUAACCUCUGUCUACAAAAUCACCCAUAAAUAUGUAGUUUGUGUCAGGAACCUGACCUCCCAACAGAGGAUUGAGCAUCA
B8: chr17:62496344:62496345:-_ENSG00000108654_ENST00000581693|hu_hu|FALSE|FALSE (ssRNA)
RNA: GGGAGUUCUACAGUCCGACGAUCCCCAAAAUCUCUUUUAAGCAGGCUAGAGUAACCUCUGUCAUAAUUUUCCCUGUCUCUAAAGGUAUUAAAUCCACCCCUUUUGCCCGCAGAGUAUCUGUCCCGACGGUCAUCCUUCAUGCCCAACAGAGGAUUGAGCAUCA
B9: chrX:20248510:20248511:+_ENSMUSG00000001924_ENSMUST00000001989|perfect_dup|motif|central (ssRNA)
RNA: GGGAGUUCUACAGUCCGACGAUCGACCUGACUGACGAUGCCUCCACGGAUGUAGUCAGAGAAGUUGGAAGUGUCACAGAUACGGAAGGUAUAAGGACCCAGCACUUUGAUCUCCAUGGGCUGACAUCCAUUGAGUUGGAUCAUCAACAGAGGAUUGAGCAUCA
B10: chr15:79189513:79189514:+_ENSG00000185787_ENST00000426013|hu_hu|FALSE|FALSE (ssRNA)
RNA: GGGAGUUCUACAGUCCGACGAUCCUUUUAUUUUUUCUCUGUUUAAAAUCAAACAGAAAACAAACAUCAAUUGUUAUACACUAACAUCUUCAAAGCACAUCGUUUGUACAAGAGAUAGACUAAGAACAAAAAUGUGUUUACGGACAACAGAGGAUUGAGCAUCA
B11: 44271160_44272037_1950_CDS_ENSG00000124608_ENST00000244571|human|control|control (ssRNA)
RNA: GGGAGUUCUACAGUCCGACGAUCCUGGGUGGUCACAUCCAAGCGCAGCUGCUCAGGAUUGAGAUGGGAGCCCUGCUGCUCUGUGCCAGGGCCCAGGGUCUGCCUCAGUGCCCAGUUCAGCAGGUGGGUGGCCGUAUGCUUCGCCAACAGAGGAUUGAGCAUCA
B12: chr22:41363808:41363809:+_ENSG00000100387_ENST00000216225|hu_hu|FALSE|FALSE (ssRNA)
RNA: GGGAGUUCUACAGUCCGACGAUCGUCCAAUGGACACACCUGUCGUGUUUUGAGCCAGCGAGAGAUGCAGUGGAAGUGAAAAGCAUGGUUACAGACUCCCCAUGCGACAGUACACUCUUCUGAAGUAGCGGACGCCUGGUUAGCCAACAGAGGAUUGAGCAUCA
B13: chr3:119450855:119450856:-_ENSMUSG00000028134_ENSMUST00000029780|mus_hu|mus_mus_mus_hu_False|58_58 (ssRNA)
RNA: GGGAGUUCUACAGUCCGACGAUCUGUGGUGCCACUAAGAGGAGUAUUUGCUGUCUGGACAGCUGUCACAGCUUGAAGAACUACUUGAGCACGUUGGUUUAAUGUAUUAUCUGUCUUUAGUUCUUUGUGAUUCGAGUACUGGAUCAACAGAGGAUUGAGCAUCA
B14: chr4:13698614:13698615:+_ENSMUSG00000006586_ENSMUST00000098257|mus_mus|FALSE|FALSE (ssRNA)
RNA: GGGAGUUCUACAGUCCGACGAUCACUCAGUGCUCUCCAAGUGUUUCUUUUGACAGAUAUCAUUCUCCAGCAAGCGCUGUGCUAAUCUCCUCUGCUGCUCGGACUGGGACCCAGAUAAGUUCACCAGCCCACAGAUCAAUCUUUCAACAGAGGAUUGAGCAUCA
B15: chr19:60835742:60835743:+_ENSMUSG00000072437_ENSMUST00000088237|mus_hu|motif|central (ssRNA)
RNA: GGGAGUUCUACAGUCCGACGAUCUCCAAAAAGGACUUUGUAGGAAAAUUAAAAUACAAAGAAAAAUAAAAGCCACGGGAAAUUUUAAGUCUGUACAGAAAAGAACAGGUUAAGACAAUCUGUACCUCUACAGUUGGAGAAGCCCAACAGAGGAUUGAGCAUCA
B16: chr2:170668292:170668293:+_ENSG00000138385_ENST00000260956|hu_hu|motif|central (ssRNA)
RNA: GGGAGUUCUACAGUCCGACGAUCGUGGACCUAAUUCGGUUUUCCUUUUAAAAGCCCCGCAAACAAAAGUCGUUUAAAACCGGUUUAAAAUGAAUAAAAAAUUGGUUUACUAAACUACUGGUCUCCAGCACCAUUUUCUGUUUUCAACAGAGGAUUGAGCAUCA
B17: chr5:28717518:28717519:+_ENSMUSG00000048271_ENSMUST00000114884|mus_hu|motif|central (ssRNA)
RNA: GGGAGUUCUACAGUCCGACGAUCUGCUGAGGGCGUGGCAGAGCAGCGGCUGCUGCUCAUUUCUAUCACGUGUGACGGCGCGGUGGGUAAUUCACGCAAAUUGCUGUUCCUUGGCGCAGUGGGCUGCAUUUGCUGCAUGGGCCGCAACAGAGGAUUGAGCAUCA
B18: chr14:89307221:89307222:+_ENSG00000165533_ENST00000346301|hu_hu|motif|central (ssRNA)
RNA: GGGAGUUCUACAGUCCGACGAUCUCCUGUCUGAUUAGUUCCAGGGAGUUUCAAAGACGUUCCAGGGCGUGGAACUUGAGCGGUAGCAUUUUCAUCCAGCAUCAUUUCUGCAAUUCCUUCCUGAUCUACAUCAAUUUCAUCUAUCAACAGAGGAUUGAGCAUCA
B19: 108382292_108397401_1306_3pUTR_ENSG00000106692_ENST00000223528|human|control|control (ssRNA)
RNA: GGGAGUUCUACAGUCCGACGAUCUUCACAGGGUACAUGGACCUUCAUGUCUACAAACUCAGUCCAGCACAGUGUAAACUUCGGAAACAGGUAUUUGAAUUUUUUUCCUGUUUUGGCCUGAGUGCCUCCAUUCCACAUGUGAUCCAACAGAGGAUUGAGCAUCA
B20: chr8:29927545:29927546:-_ENSG00000133872_ENST00000521265|hu_hu|FALSE|FALSE (ssRNA)
RNA: GGGAGUUCUACAGUCCGACGAUCAGGACUCAUAGCCUUCACAGCUCACCACAGUUUUUCCAAAUUUGUAUGCAAUAUCUAAGUCCGUCUUACAUUCCCACUGUACAUCAUACCCAUCCCAGCCUUUGUUCUGACACUGUAUGACAACAGAGGAUUGAGCAUCA
B21: chr14:94545736:94545737:-_ENSG00000089737_ENST00000330836|hu_hu|motif|central (ssRNA)
RNA: GGGAGUUCUACAGUCCGACGAUCCUCCAGCUCAGGAUCUUUCACUUCAAAUUCUUUCUGGGUACUGGUUCCUUCAGUUGCGGCAUUUUUACUUUUCUUCAACUUGAUCUUUUUCUUUGGUGAGCUAGACUUUCCCUCCUCCUCCAACAGAGGAUUGAGCAUCA
B22: chr4:25749455:25749456:-_ENSG00000091490_ENST00000264868|hu_hu|hu_hu_hu_mus_False|48_48 (ssRNA)
RNA: GGGAGUUCUACAGUCCGACGAUCGCACUAUGACCUCUAGAAAAAUCCACAGGGGGAAAAAAUGUAAACCAAUGUACAAUGUUAUCGCCCUCCCUGCGUGUGGAGUGUUUGUCUCAAGGCUCCUUCUAGCUGCUGGAUUUGGGACAACAGAGGAUUGAGCAUCA

Some of the results follow.

The target in the test is T1, UNK ZnF1-3. Briefly: nsRBNS (natural sequence RNA bind-n-seq); RBNS binding buffer (assumed for nsRBNS): 25 mM Tris pH 7.5, 150 mM KCl, 3 mM MgCl2, 0.01% Triton X-100, 500 ug/ml BSA, 20 U/ml SUPERase-In, 4 C; UNK is unkempt and MSI1 is Musashi-1; names of the RNAs are library labels; protein concentration not given here; high values mean tight binding.
B1 displayed a binding signal of 0.849 enrichment R. In the case of B2 it was 1.78 enrichment R; in that of B3, 0.603 enrichment R; in that of B4, 0.853 enrichment R. Molecule B5 came in with a binding signal of 0.87 enrichment R. In turn, B6 returned a binding signal of 0.508 enrichment R. In the case of B7 it was 1.06 enrichment R; in that of B8, 0.882 enrichment R. Take B9: the binding signal stood at 0.457 enrichment R. With B10 the figure was 0.359 enrichment R; with B11, 1.39 enrichment R; with B12, 0.903 enrichment R.

The molecule B13 came in with a binding signal of 0.823 enrichment R. In the case of B14 it was 0.734 enrichment R; in that of B15, 2.47 enrichment R.

With B16, the binding signal was 1.89 enrichment R.

B17 came in with a binding signal of 0.545 enrichment R.

Turning to B18, the binding signal worked out at 0.853 enrichment R. In the case of B19 it was 0.589 enrichment R; in that of B20, 0.898 enrichment R; in that of B21, 0.426 enrichment R. In the case of B22 it was 1.07 enrichment R.
